Measurements: the supplement of paper PMC10126150
Sequences with one replicate were seen in a single cluster, so their values are uncertain.

These sequences were tested on ATP (assay: switch fluorescence ratio, 500 uM ATP over buffer (Cy3 cluster intensity, sum of 5 cycles each) (fold (ratio)); higher = stronger signal-on switching upon ATP binding; sequences stand for … in TCGTCGGCAGCGTCAGATGTGTATAAGAGACAGTTTTTTTTTTTTTTTTTTTTTTTTT…TC). Conditions: aptamer strand: ATP DNA aptamer (quencher-CACCTGGGGGAGTATTGCGGAGGAAGG + anchor), 100 nM annealed; ATP concentration: 500 uM; one replicate.
In short: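 After annealing to 100 nM quencher-labelled ATP aptamer, Cy3-labelled switching-strand clusters on a modified Illumina MiSeq flow-cell were imaged in selection buffer. A second image followed after 15 min with 500 uM ATP at 22 °C, and five such buffer/ATP cycles were done, each separated by NaOH stripping and re-annealing. The fluorescence ratio, averaged per switch-domain sequence, is summed target-cycle over summed buffer-cycle Cy3 intensity per cluster, with clusters outside 100-1000 RFU excluded.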
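Also: ATP exposure 15 min at 22 °C before imaging.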

Sequence | switch fluorescence ratio
TGTCTGTCTG | 0.952
TGTGAAAAT | 1.01
TGTGACAGAG | 0.974
TGTGACGTTA | 1.04
TGTGACTGTT | 1.03
TGTGAGATGA | 0.989
TGTGAGGAA | 1.02
TGTGCCTATG | 0.973
TGTGCGACAA | 1.34
TGTGCGTTCA | 0.976
TGTGCTCCGC | 1.35
TGTGCTCGGG | 0.998
TGTGCTTATA | 0.996
TGTGGGCGTT | 1.02
TGTGGGT | 0.97
TGTGGGTACA | 1
TGTGGGTGTG | 0.94
TGTGTAATCA | 1.02
TGTGTCGTAG | 0.948
TGTGTCTGAA | 1.01
TGTGTGAGTC | 1.07
TGTGTGGGTG | 0.984
TGTGTTAATT | 0.998
TGTGTTCAAA | 1
TGTTAAAAGG | 0.969
TGTTACTGTA | 1.22

Sequence | switch fluorescence ratio
TGTTAGAAAG | 0.986
TGTTATCGCC | 0.971
TGTTATGCGG | 0.965
TGTTCAACAC | 1
TGTTCCCTAG | 1.02
TGTTCGACGA | 1.14
TGTTCGCATA | 1.44
TGTTCGTAT | 0.983
TGTTCGTTA | 1.01
TGTTGACCG | 0.949
TGTTGAGAGA | 1
TGTTGCAGGA | 1.02
TGTTGCTGAT | 0.976
TGTTGGGAGC | 0.974
TGTTGGTCGC | 0.972
TGTTGGTTCT | 1
TGTTGTGAAA | 0.953
TGTTTCTATG | 0.986
TGTTTGGACA | 1.02
TGTTTGTCGT | 0.987
TGTTTTAACC | 0.994
TGTTTTCGGC | 0.998
TGTTTTGC | 1
TGTTTTGTCT | 0.931
TGTTTTTGG | 0.967
TTAAAAGCGC | 0.995

Sequence | switch fluorescence ratio
TTAAAATTC | 0.968
TTAAACAGAG | 1.01
TTAAACGATG | 0.919
TTAAAGACG | 1.01
TTAAAGCGCT | 0.997
TTAAAGCTA | 1.02
TTAAAGGCGC | 1
TTAAAGGT | 1.02
TTAACAAGAG | 1.02
TTAACCAGTT | 0.989
TTAACTGAG | 1.04
TTAACTGGCT | 1.04
TTAAGAAACT | 1.04
TTAAGACATT | 0.99
TTAAGCTTAC | 2.02
TTAAGGGGCG | 1.02
TTAAGGGTG | 1.03
TTAAGGTCTG | 0.976
TTAAGTGAGT | 1.02
TTAAGTTGCT | 0.997
TTAAGTTTC | 0.982
TTAATAGAGA | 1.02
TTAATCATTT | 1.02
TTAATCCATC | 0.989
TTAATCCG | 1.03
TTAATCGACG | 0.942

Sequence | switch fluorescence ratio
TTAATCGCCA | 1.11
TTAATCGGGT | 0.984
TTAATCTCCG | 1.08
TTAATCTTC | 1.03
TTAATGAGAG | 1.03
TTAATGATCG | 1.07
TTAATGCTAC | 1.15
TTAATGGAGA | 0.985
TTAATGTGTA | 1.03
TTAATTACCT | 1.27
TTAATTAGAT | 1.02
TTACAATAGG | 1.08
TTACACAGCA | 1.06
TTACACTAGA | 1.04
TTACACTTTT | 0.923
TTACAGATGG | 1.02
TTACAGTATT | 1.07
TTACAGTCAT | 1.01
TTACATGTTA | 1.05
TTACATTGTC | 0.998
TTACCACGGG | 0.958
TTACCAGTTT | 1.1
TTACCCAGTA | 1.02
